From ChEMBL document CHEMBL1250430, “Synthesis, semipreparative HPLC separation, biological evaluation, and 3D-QSAR of hydrazothiazole derivatives as human monoamine oxidase B inhibitors” (Bioorg Med Chem, 2010)

The compounds below were run against T1, Amine oxidase [flavin-containing] A (Homo sapiens, UniProt P21397) (assay: not given). Conditions: bti-tn-5b1-4.
T1 sequence (P21397 whole entry): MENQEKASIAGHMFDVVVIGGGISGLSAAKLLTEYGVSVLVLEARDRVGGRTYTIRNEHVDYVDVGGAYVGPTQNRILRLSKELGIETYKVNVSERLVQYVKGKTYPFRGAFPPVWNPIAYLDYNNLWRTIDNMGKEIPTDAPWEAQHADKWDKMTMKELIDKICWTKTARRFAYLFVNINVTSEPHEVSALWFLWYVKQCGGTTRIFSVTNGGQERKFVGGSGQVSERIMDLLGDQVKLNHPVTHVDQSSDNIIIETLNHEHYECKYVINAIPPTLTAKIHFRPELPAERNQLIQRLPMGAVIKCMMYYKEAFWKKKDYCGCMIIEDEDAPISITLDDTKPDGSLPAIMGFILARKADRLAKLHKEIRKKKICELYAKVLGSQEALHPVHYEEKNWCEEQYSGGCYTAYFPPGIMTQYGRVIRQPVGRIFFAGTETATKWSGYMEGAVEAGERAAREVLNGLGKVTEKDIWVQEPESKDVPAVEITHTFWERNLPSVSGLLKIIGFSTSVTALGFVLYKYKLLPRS

Question: `CC1CCC(=NNc2nc(-c3ccc(Cl)cc3)cs2)CC1` (stereo unspecified) was tested. Which IC50 did it give?
Answer: 15.2 µM

Question: Which IC50 does the source give for `COc1ccc(-c2csc(NN=C3CCC(C)CC3)n2)cc1` (stereo unspecified) here?
Answer: 5.76 µM

These compounds were tested against T1, Amine oxidase [flavin-containing] A (assay: biochemical). Conditions: not given.

Question: How did the IC50 turn out when `O=[N+]([O-])c1ccc(-c2csc(NN=C3CCCCC3)n2)cc1` was run?
Answer: 24.2 µM

Question: With `Fc1ccc(-c2csc(NN=C3CCCCC3)n2)cc1` as the compound, how does the IC50 read?
Answer: 1.75 µM

Question: With `N#Cc1ccc(-c2csc(NN=C3CCCCC3)n2)cc1` as the compound, how does the IC50 read?
Answer: 4.84 µM

Question: For `COc1ccc(-c2csc(N/N=C3\CCCCC3C)n2)cc1` (stereo unspecified), which IC50 is on record?
Answer: 2.76 µM

Question: How did the IC50 turn out when `Clc1ccc(-c2csc(NN=C3CCCCC3)n2)cc1` was run?
Answer: 2.91 µM

Question: For `C[C@@H]1CCCC/C1=N\Nc1nc(-c2ccc([N+](=O)[O-])cc2)cs1`, which IC50 is on record?
Answer: 44 µM

Question: `CC1CCCC/C1=N\Nc1nc(-c2ccc(Cl)cc2Cl)cs1` (stereo unspecified) was tested. Which IC50 did it give?
Answer: 44.7 µM

Question: Which IC50 does the source give for `CC1CCCC/C1=N\Nc1nc(-c2ccccc2)cs1` (stereo unspecified) here?
Answer: 41.2 µM

Question: How did the IC50 turn out when `C[C@H]1CCCC/C1=N\Nc1nc(-c2ccc([N+](=O)[O-])cc2)cs1` was run?
Answer: 42.3 µM
